Results reported in the supplement of paper PMC6206098.
± gives the uncertainty stated by the source. Shown are siRNA guide strands that differ only in the seed, positions 2 to 7.

What was measured:
H460 = test: cell viability relative to lipid-only control; higher = less toxic; details: concentration: 10 nM; 96 h; Homo sapiens
M565 = test: as above; details: concentration: 10 nM; 96 h; Mus musculus
HeyA8 = test: as above; details: concentration: 10 nM; 96 h; Homo sapiens
3LL = test: cell viability relative to siNT1 control; HeyA8 human ovarian and H460 human lung cancer; M565 mouse liver and 3LL mouse lung cancer; siNT1 is a non-toxic control siRNA; higher = less toxic; details: concentration: 10 nM; 96 h; Mus musculus
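Wherever cell viability relative to lipid-only control is given: reverse lipid transfection in 384-well plates, in triplicate, of duplexes on a non-toxic 19mer backbone with passenger strand 2′-O-methylated at positions 1 and 2, luminescence viability read-out.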
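Wherever cell viability relative to siNT1 control is given: Luminescence-based viability of cells reverse transfected in 384-well plates with lipid-complexed siRNAs built on a non-toxic 19mer backbone whose passenger strand carries 2′-O-methyl groups at positions 1 and 2, triplicates.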

Row | Sequence | cell viability (H460) | cell viability (M565) | cell viability (HeyA8) | cell viability (3LL)
1 | UCUAGUAACAUGUAAACCAAA | 57.8 ± 2% | 66.1 ± 9.2% | 84.8 ± 8.3% | 94.2 ± 15%
2 | UUACUAAACAUGUAAACCAAA | 77 ± 6.1% | 73.8 ± 7% | 95.6 ± 5.5% | 106 ± 7.6%
3 | UGUACACACAUGUAAACCAAA | 80.5 ± 5.1% | 49.8 ± 11% | 71.8 ± 9.2% | 79.5 ± 5.7%
4 | UAGACGUACAUGUAAACCAAA | 75 ± 23% | 42.2 ± 2.7% | 82.8 ± 3.9% | 20.2 ± 3.6%
5 | UGCUCACACAUGUAAACCAAA | 65.5 ± 8.4% | 84.6 ± 1.6% | 60.1 ± 1% | 56.1 ± 8.9%
6 | UAGGGAGACAUGUAAACCAAA | 75.7 ± 3.5% | 66.9 ± 14% | 65.7 ± 4.7% | 77.3 ± 6.9%
7 | UACGCUAACAUGUAAACCAAA | 66.4 ± 1.8% | 90.8 ± 12% | 90.7 ± 3.5% | 91.3 ± 4.2%
8 | UUUGGGCACAUGUAAACCAAA | 46.4 ± 5.2% | 34.4 ± 2.2% | 73.8 ± 4.7% | 39 ± 8.5%
9 | UCUAUUGACAUGUAAACCAAA | 57.6 ± 4.8% | 65.3 ± 12% | 83.3 ± 1.5% | 93.5 ± 13%
10 | UAUGGCAACAUGUAAACCAAA | 67.6 ± 7.1% | 50.6 ± 7.4% | 90.2 ± 8% | 109 ± 6.5%
11 | UACGAGUACAUGUAAACCAAA | 71.9 ± 12% | 76.2 ± 12% | 71.4 ± 2.2% | 74.4 ± 6.6%
12 | UUUGUCCACAUGUAAACCAAA | 54.2 ± 8.1% | 48.3 ± 13% | 85.7 ± 4.7% | 57.8 ± 9%
13 | UACAUGCACAUGUAAACCAAA | 26 ± 2.4% | 19.6 ± 2.7% | 8.38 ± 0.88% | 34.3 ± 1.8%
14 | UGAAGAAACAUGUAAACCAAA | 73.9 ± 12% | 35.2 ± 2.8% | 81.4 ± 5.4% | 90.9 ± 14%
15 | UGAGACGACAUGUAAACCAAA | 59.4 ± 8.8% | 47.4 ± 11% | 94.1 ± 7.7% | 72.6 ± 14%
16 | UUACGUUACAUGUAAACCAAA | 108 ± 14% | 62.4 ± 2.5% | 97.2 ± 5.5% | 108 ± 8.8%
17 | UAAUCCGACAUGUAAACCAAA | 69 ± 8.7% | 81.4 ± 5.2% | 90.3 ± 8.1% | 99.6 ± 4.7%
18 | UAGUCAAACAUGUAAACCAAA | 70.7 ± 6.8% | 34.2 ± 4.7% | 59 ± 12% | 76.1 ± 3.4%
19 | UCGUCAAACAUGUAAACCAAA | 73.2 ± 21% | 52.4 ± 7% | 74.5 ± 7.7% | 93.5 ± 17%
20 | UGACAUGACAUGUAAACCAAA | 59.8 ± 6.5% | 49.9 ± 15% | 88.7 ± 4.4% | 91.8 ± 14%
21 | UCUGGUCACAUGUAAACCAAA | 31.9 ± 4.2% | 61.7 ± 10% | 65.2 ± 3.8% | 99 ± 16%
22 | UAUGGGAACAUGUAAACCAAA | 88.9 ± 6.5% | 65 ± 9.7% | 85 ± 1.2% | 112 ± 8.8%
23 | UACGGUUACAUGUAAACCAAA | 64.6 ± 4.2% | 85.8 ± 14% | 67.88 ± 0.44% | 79.1 ± 5.2%
24 | UGGAGGCACAUGUAAACCAAA | 23.7 ± 2.8% | 5.31 ± 1.6% | 3.53 ± 0.56% | 5.96 ± 1.3%
25 | UUCCAAUACAUGUAAACCAAA | 94.6 ± 9.1% | 92 ± 10% | 85.3 ± 19% | 107 ± 12%
26 | UCAAACCACAUGUAAACCAAA | 38.4 ± 7.9% | 64.9 ± 7.4% | 42.1 ± 5.5% | 70.9 ± 9.7%
27 | UAACCGUACAUGUAAACCAAA | 64.9 ± 5.9% | 22.8 ± 5% | 86.4 ± 5.5% | 91.9 ± 6.5%
28 | UGUGAAAACAUGUAAACCAAA | 63.1 ± 8.6% | 71.6 ± 4.3% | 83.2 ± 4.7% | 87.6 ± 4.5%
29 | UACACCGACAUGUAAACCAAA | 76.2 ± 9.9% | 39.2 ± 10% | 72.2 ± 7.4% | 78.2 ± 17%
30 | UACCGCCACAUGUAAACCAAA | 63.2 ± 4.2% | 7.94 ± 1.8% | 12.8 ± 2.3% | 24.3 ± 5.4%
